Results as given in article PMC4336329 (PLoS ONE, 2015).
About 14,000 (4.5%) of roughly 310,000 compounds showed an effect of 50% or more. Effects have a minus sign here. The list shows a part of the results.

The compounds below were run against human ether-à-go-go-related gene (hERG) potassium channel (human, UniProt Q12809) (assay: primary screen, population patch clamp on CHO cells stably expressing hERG).
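Note: peak tail current of the secondary pulse compared with the same well before compound.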

human ether-à-go-go-related gene (hERG) potassium channel, sequence (Q12809 whole entry, looked up): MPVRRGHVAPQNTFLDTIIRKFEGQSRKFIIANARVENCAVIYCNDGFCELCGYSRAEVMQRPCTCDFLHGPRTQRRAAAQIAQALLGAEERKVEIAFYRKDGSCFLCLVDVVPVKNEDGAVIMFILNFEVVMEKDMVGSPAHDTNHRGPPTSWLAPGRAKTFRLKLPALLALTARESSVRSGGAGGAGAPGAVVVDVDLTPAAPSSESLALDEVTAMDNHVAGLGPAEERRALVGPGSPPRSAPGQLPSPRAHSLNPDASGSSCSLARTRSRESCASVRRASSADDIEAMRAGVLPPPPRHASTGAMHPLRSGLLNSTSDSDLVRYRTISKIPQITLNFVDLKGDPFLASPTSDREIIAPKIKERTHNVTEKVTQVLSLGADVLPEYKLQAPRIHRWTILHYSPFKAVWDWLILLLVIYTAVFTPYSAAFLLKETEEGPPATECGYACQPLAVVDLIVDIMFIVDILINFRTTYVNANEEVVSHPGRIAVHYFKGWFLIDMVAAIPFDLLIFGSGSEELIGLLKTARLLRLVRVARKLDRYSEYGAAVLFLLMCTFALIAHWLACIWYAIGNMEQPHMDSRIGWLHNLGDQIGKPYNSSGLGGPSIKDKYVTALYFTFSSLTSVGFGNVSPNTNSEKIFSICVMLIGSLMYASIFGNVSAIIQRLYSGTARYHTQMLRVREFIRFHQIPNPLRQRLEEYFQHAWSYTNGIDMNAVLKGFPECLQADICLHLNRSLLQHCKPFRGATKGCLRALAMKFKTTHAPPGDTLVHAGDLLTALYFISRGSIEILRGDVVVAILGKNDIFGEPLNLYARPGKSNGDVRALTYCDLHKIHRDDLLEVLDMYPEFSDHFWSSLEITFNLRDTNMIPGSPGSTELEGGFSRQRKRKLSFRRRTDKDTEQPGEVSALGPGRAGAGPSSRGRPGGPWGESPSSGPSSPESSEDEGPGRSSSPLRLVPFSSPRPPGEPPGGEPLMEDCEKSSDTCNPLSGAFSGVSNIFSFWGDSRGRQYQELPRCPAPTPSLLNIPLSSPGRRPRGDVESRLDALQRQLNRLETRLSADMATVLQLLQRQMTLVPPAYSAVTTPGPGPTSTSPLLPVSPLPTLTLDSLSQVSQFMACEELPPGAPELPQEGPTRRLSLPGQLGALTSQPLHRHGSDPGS

Compound	hERG current change (%, negative = inhibition) at 10uM [%]
CCc1ccccc1N(C1=NCCCS1)S(=O)(=O)c1ccc(C(C)(C)C)cc1	4.37
CCCCOC(=O)Cn1cnc2ccc(Br)cc2c1=O	-30.1
OC[C@@H](O)CCl	10.4
CNc1nc(OC)nc(N(C#N)CN2C(=O)c3ccccc3S2(=O)=O)n1	-24.7
CC(C)CC(C)N (centres unmarked)	14.2
Cc1cccc(-c2n[nH]c(=S)n2C)c1	22.7
CCCCNC(=O)COC(=O)c1cc(C)oc1C	13.5
C=CCn1sc(N)c(C(=O)OCC)c1=S	0.673
CCC(C)(C)n1nnnc1CN1CCN(C(c2ccccc2)c2ccccc2)CC1	-0.685
CCCNS(=O)(=O)c1ccc(OCC(=O)OC)cc1	9.6
COc1ccc(C(=O)NCc2nnc(SCC(=O)NC3CCCCC3)n2C)cc1	0.192
O=C(Nc1ccc(OC(F)(F)F)cc1)Nc1cccc([N+](=O)[O-])c1	15.5
COc1ccccc1OCC(=O)NCCC1=CCCCC1	-11.6
O=C(Nc1cccc(C(F)(F)F)c1)c1scc2c1OCCO2	5.61
C=CCSc1ncc(C#N)c(N)n1	-6.13
Cc1ccc(Cn2c(C(C)Nc3nc(-c4ccc(F)cc4)cs3)nc3cc(C(F)(F)F)ccc32)cc1 (centres unmarked)	12.7
O=C(NCc1ccccn1)c1cc(-c2ccncc2)nc2ccccc12	-25.6
CC1(C)CC(=O)C(C(N)=NC(=O)c2ccc([N+](=O)[O-])cc2)=C(O)C1	19
Cc1ccc(SCC(=O)Nc2nnc(-c3ccco3)o2)cc1	-14.6
CCc1cccc(C)c1NC(=O)C(c1ccccc1)N1CCC1=O (centres unmarked)	15.5
CNC(=O)CC1C(=O)N(c2ccc(F)cc2)C(=S)N1NC(=O)c1ccc(Br)cc1 (centres unmarked)	2.82
O=S(=O)(Cc1cccc(C(F)(F)F)c1)c1ncn[nH]1	17.9

Compound	hERG current change (%, negative = inhibition) at 10uM [%]
COc1ccc2nc(NC(=O)CCN3C(=S)NC(C)(C)CC3C)sc2c1 (centres unmarked)	-2.94
Cc1cccc(C(=O)NC(=S)Nc2ccc(Cc3ccncc3)cc2)c1	-9.37
COC(=O)C1=C(N)c2c(F)cccc2C1(C#N)c1ccc(F)cc1 (centres unmarked)	-38.2
Cl.c1ccc2c(c1)oc1c(Nc3ccc4c(c3)OCO4)ncnc12	18.5
O=C(NN=C1CCCC1)c1[nH]c2ccc(Cl)cc2c1-c1ccccc1	7.13
CCOC(=O)Cn1nc(C)n(-c2c(C)cccc2C)c1=O	27.7
Cc1ccc(SCCC(=O)NCCSCc2ccccc2C)cc1	9.03
CCOC(=O)c1cnc2cc(-c3ccc(C)cc3)nn2c1-c1ccccc1	5.07
CCNc1ccc(C(=O)OCC)cc1NC(=O)c1cc(S(=O)(=O)N2CCOCC2)ccc1C	-10.9
Cc1ccc(S(=O)(=O)NNC(=O)CC#N)cc1	8.9
COc1cc(C(=O)OCC(=O)Nc2ccc3c(c2)OC(F)(F)O3)ccc1OCc1c(C)noc1C	-0.456
NC(=O)C1CCN(C(=O)CSc2nc3ccccc3s2)CC1	1.43
CCS(=O)(=O)Nc1ccc(C2=NN(C(=S)Nc3ccccc3)C(c3ccco3)C2)cc1 (centres unmarked)	1.29
Cc1nn(Cc2ccc(Cl)c(Cl)c2)c(C)c1NC(=O)c1cc(C2CC2)on1	-28.6
Cc1cccc(C(=O)NCC(=O)Nc2ccncc2)c1	-4.07
NC(=O)c1cc2c(s1)-c1cc(Cl)ccc1SC2	1.66
O=C(c1ccco1)N1CCN(C(=O)C2CC2)CC1	-11.8
COc1cccc(-c2cc(C(=O)Nc3cccnc3)c3ccccc3n2)c1	-19.9
CSc1nc(C)nc(C2CC2)c1C#N	17
COc1ccc(N2CC(C)Cn3c2nc2c3c(=O)n(Cc3ccc(F)cc3)c(=O)n2C)c(OC)c1 (centres unmarked)	-11.2
CC(C)Cc1ccc(C(=O)NCc2ccc3c(c2)OCO3)o1	17
COc1ccccc1N1CCN(C/C=C/c2ccc(N(C)C)cc2)CC1	-53.9
